# Data as given in PMC4336329 (PLoS ONE, 2015).
# About 2,200 (0.71%) of roughly 310,000 compounds showed an effect of 50% or more. The effect is printed as a negative number. The list shows a part of the results.
# Biological target: human ether-à-go-go-related gene (hERG) potassium channel (human, UniProt Q12809)
# Assay: primary screen, population patch clamp on CHO cells stably expressing hERG
# Chain of human ether-à-go-go-related gene (hERG) potassium channel (Q12809 whole entry, looked up): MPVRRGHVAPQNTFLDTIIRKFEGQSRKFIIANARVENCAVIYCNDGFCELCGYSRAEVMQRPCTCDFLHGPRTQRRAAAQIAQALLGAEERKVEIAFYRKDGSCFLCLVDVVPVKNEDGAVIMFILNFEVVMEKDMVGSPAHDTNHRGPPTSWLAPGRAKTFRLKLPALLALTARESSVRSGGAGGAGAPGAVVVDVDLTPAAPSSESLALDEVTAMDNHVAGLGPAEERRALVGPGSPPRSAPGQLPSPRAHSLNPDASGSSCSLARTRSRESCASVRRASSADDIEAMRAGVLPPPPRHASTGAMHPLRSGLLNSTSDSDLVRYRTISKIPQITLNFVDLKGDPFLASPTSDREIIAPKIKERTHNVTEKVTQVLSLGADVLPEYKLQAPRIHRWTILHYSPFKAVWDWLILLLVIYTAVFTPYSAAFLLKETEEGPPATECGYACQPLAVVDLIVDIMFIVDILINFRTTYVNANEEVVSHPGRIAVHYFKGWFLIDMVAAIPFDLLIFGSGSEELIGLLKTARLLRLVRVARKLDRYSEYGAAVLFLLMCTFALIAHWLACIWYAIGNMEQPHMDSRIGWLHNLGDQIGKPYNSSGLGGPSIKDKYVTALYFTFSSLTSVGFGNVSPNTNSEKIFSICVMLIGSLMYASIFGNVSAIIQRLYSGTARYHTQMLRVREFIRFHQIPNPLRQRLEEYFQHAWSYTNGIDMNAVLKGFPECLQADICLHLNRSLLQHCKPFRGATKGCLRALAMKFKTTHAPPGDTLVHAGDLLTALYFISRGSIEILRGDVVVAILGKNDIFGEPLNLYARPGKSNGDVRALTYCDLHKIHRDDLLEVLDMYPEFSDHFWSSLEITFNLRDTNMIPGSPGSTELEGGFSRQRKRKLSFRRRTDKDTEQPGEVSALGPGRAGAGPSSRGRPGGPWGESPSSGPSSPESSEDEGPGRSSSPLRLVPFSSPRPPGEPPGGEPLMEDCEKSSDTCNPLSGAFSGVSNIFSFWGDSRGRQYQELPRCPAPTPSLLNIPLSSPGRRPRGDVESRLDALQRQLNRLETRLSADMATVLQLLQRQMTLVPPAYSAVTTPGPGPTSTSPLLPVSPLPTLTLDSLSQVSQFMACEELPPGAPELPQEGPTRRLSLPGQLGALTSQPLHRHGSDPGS
row,SMILES,"hERG current change (%, negative = inhibition) at 1uM"
1,Cc1cc(C)nc(SCCC(=O)N(C)C)n1,11%
2,COC(=O)c1ccccc1NC(=O)c1cc(-c2cccs2)on1,4.24%
3,Fc1ccccc1C1c2cccn2CCN1C(=S)Nc1cccc(Br)c1 (stereo not drawn),1.92%
4,Cc1ccc(S(=O)(=O)c2nc(-c3ccccc3Cl)oc2NCCCN2CCOCC2)cc1,4.2%
5,C=CCNC(=S)NNC(=O)c1ccc(=O)n(Cc2ccccc2)c1,20.9%
6,Cl.OCCNCC1(O)C2CC3CC(C2)CC1C3 (stereo not drawn),12.1%
7,CCC(=O)NC(=S)Nc1cccc(NC(=O)c2ccccc2)c1,13.8%
8,CC(NC(=O)c1ccncc1)c1ccc(Br)cc1 (stereo not drawn),5.94%
9,CC(C)CC1NC(=S)N(Cc2ccccc2)C1=O (stereo not drawn),1.75%
10,N#CCSc1nc(N)c(C#N)c(C2CCCCC2)c1C#N,10%
11,Cl.Cn1ccc2cc(NC(=O)Nc3cccnc3)ccc21.O,8.01%
12,N#CCSc1ccc(-c2nc3ccccc3[nH]2)cn1,-0.0982%
13,O=C(NC1CCCC1)c1cc(S(=O)(=O)N2CCOCC2)c(Cl)cc1Cl,4%
14,COc1ccc(S(=O)(=O)N2CCOCC2)cc1NC(=O)c1cc(=O)[nH]c2ccccc12,14.9%
15,Cc1ccc(C(c2cc(Cl)c3cccnc3c2O)N2CCN(C)CC2)cc1 (stereo not drawn),4.22%
16,c1ccc2nc3[nH]cnc3nc2c1,5.74%
17,CC1=Nc2ccccc2N=C(N)C1c1ccccc1 (stereo not drawn),15.4%
18,COC(=O)Cn1cc(C(=O)OC)c2ccccc21,4.33%
19,Cc1onc(-c2ccccc2Cl)c1C(=O)NNC(=O)c1ccc(F)cc1,10.3%
20,COc1ccc2c(c1)/C(=N/OC(=O)c1cccs1)CCC2,2.62%
21,CN(CC(=O)Nc1c(Cl)cccc1Cl)C(=O)c1ccc(-n2cncn2)c([N+](=O)[O-])c1,16.3%
22,O=C(OCC1CC(c2ccccc2)=NO1)c1ccco1 (stereo not drawn),13.5%
23,CCCCOP(=O)(CN1CCOCC1)OCCCC,11.9%

row,SMILES,"hERG current change (%, negative = inhibition) at 1uM"
1,CC(=O)N1N=C(c2cccs2)CC1c1cccc([N+](=O)[O-])c1 (stereo not drawn),-8.37%
2,COc1ccc(Cl)cc1NC(=O)N1CCN(S(C)(=O)=O)CC1,4.07%
3,COc1ccccc1C(=O)COC(=O)C1CCN(S(=O)(=O)c2ccc(C)c(C)c2)CC1,14.4%
4,CCS(=O)(=O)c1ccc(-c2csc(-c3ccccc3Cl)n2)c(Cl)c1Cl,1.61%
5,COc1cc(CCC(=O)Nc2ncc(C)s2)cc(OC)c1OC,9.63%
6,O=C1NC(=O)/C(=C\c2ccccc2OCc2ccc([N+](=O)[O-])cc2)N1,9.76%
7,CCOc1ccc2nc(NC(=O)C(NS(=O)(=O)c3cccc4nsnc34)C(C)C)sc2c1 (stereo not drawn),12.7%
8,Cc1ccccc1OCC(=O)Nc1cccc(Cl)c1C,14.2%
9,Cc1cccnc1NC(=O)c1nn(C)c2c1CS(=O)(=O)c1ccccc1-2,13.1%
10,O=C(OCC(=O)N1CCc2ccccc21)C1CCCN1S(=O)(=O)c1ccc(Cl)cc1 (stereo not drawn),5.04%
11,O=C(CNC(=S)N(Cc1ccccc1)Cc1ccccc1F)NCCc1ccc(Cl)cc1,3.76%
12,C=CCNC(=S)N1CCOCC1,7.43%
13,CCOc1ccc(NC2=NCC(=O)N2CCc2ccccc2)cc1.Cl,14.9%
14,CCSc1nc(N2CCOCC2)c2c(c1C#N)CC(C)(C)N(C)C2,9.53%
15,COCCCNC(=O)Cn1nnc(-c2ccc(NC(=O)c3ccccc3F)cc2)n1,3.12%
16,Cc1ccc2[nH]c(=O)c(CN(Cc3nnnn3Cc3ccccc3)C3CCCC3)cc2c1,11.9%
17,COc1cccc(-n2c(SCC(=O)NC3CCCC3)nnc2-c2ccco2)c1,-25.1%
18,Cc1cc(C(=O)Nc2cc(C(C)(C)C)on2)c(C)o1,13.9%
19,CC(C)n1c(/N=C/c2ccccc2O)nc2ccccc21,12.5%
20,CC1CCc2nc(NC(=O)c3ccc(N4C(=O)CCC4=O)cc3)sc2C1 (stereo not drawn),15.6%
21,COc1cccc([C@@H]2CC=C(C(=O)O)[C@H](c3ccccc3F)N2S(=O)(=O)c2ccc(C)cc2)c1,7.94%
22,O=C(Nc1nc2ccccc2[nH]1)C1CC(=O)N(c2ccc3c(c2)OCCO3)C1 (stereo not drawn),2.97%
23,CCCCN1C(=O)C(=O)N(CC(=O)N2CCN(c3ccccc3)CC2)C1=O,5.7%

row,SMILES,"hERG current change (%, negative = inhibition) at 1uM"
1,Cc1ccccc1N(CC(=O)NCc1ccccc1)C(=O)CCC(=O)Nc1nccs1,12.5%
2,CN1CCN(C(=O)Nc2ccccc2)CC1.O=C(O)C(=O)O,12.3%
3,Cc1cc(C(=O)NCCc2ccc(Cl)cc2)no1,5.45%
4,CC(=O)OCC1OC(n2ccc(=O)[nH]c2=O)C(O)C1O (stereo not drawn),8.56%
5,CCCn1c(N)c(C(=O)CSc2nc3ccccc3s2)c(=O)[nH]c1=O,6.76%
6,COc1ccc(S(=O)(=O)N(CC(=O)N/N=C/c2cccs2)c2cc(C)cc(C)c2)cc1OC,-8.06%
7,Cc1cc(C)c(NC(=O)COC(=O)c2nc3nccc(C)n3n2)c(Cl)c1,8.31%
8,COC(=O)CNc1nc(C2CC2)nc2c1nnn2Cc1ccccc1Cl,-0.759%
9,CCOc1ccc(CCNC(=O)c2cccc3c2C(=O)N(CCOC)C3)cc1OCC,5.79%
10,CCCn1cnc2cc(NCc3cccs3)ccc21,7.23%
11,COC(=O)c1c(NC(=O)C(=O)N2CCCC2)sc2c1CC(C)(C)OC2,12.9%
12,Cc1cc(C(=O)OC(C)C(=O)Nc2cccc(S(=O)(=O)N3CCOCC3)c2)c(C)o1 (stereo not drawn),-2.94%
13,Cc1ccc(C2=N/C(=C\c3ccc(OS(=O)(=O)c4ccc(C)cc4)cc3)C(=O)O2)cc1,19.4%
14,CC(=O)c1nn(-c2cccc(Br)c2)cc1C(=O)c1ccc(Cl)cc1,7.8%
15,O=C(Nc1cccc(-c2nnc(-c3ccccc3)o2)c1)C1CC1,-6.62%
16,COc1cc(C)c(-c2cc(C(=O)O)c(C)o2)cc1C(C)C,11.9%
17,COc1ccc(-n2c(SCC#N)nnc2-c2cccnc2)cc1,0.939%
18,CC(=O)Nc1cccc(N=NN2CCOCC2)c1,8.15%
19,CCCOc1ccccc1N/C(=N/c1nc(C)cc(C)n1)NC(=O)COc1ccc(OC)cc1,5.32%
20,Cc1ccc(C)c(NC(=O)CSc2nnc(CNC(=O)c3ccco3)n2C)c1,12.4%
21,Cc1ccc(NC(=O)c2cc(N3C(=O)C4CC=CCC4C3=O)ccc2N2CCOCC2)cc1Cl (stereo not drawn),11%
22,COc1ccc(NC(=O)CN(C)C(=O)c2ccc(=O)[nH]c2)cc1,9.78%
23,Cc1cc(C)n(CCOC(=O)C2C(C=C(Cl)Cl)C2(C)C)n1 (stereo not drawn),-11.2%

row,SMILES,"hERG current change (%, negative = inhibition) at 1uM"
1,C=CCn1cccc(C(=O)Nc2ccc(OC)c(Cl)c2)c1=O,7.17%
2,COc1ccc(NC(=O)/C(C#N)=C\c2cc(OC)c(OCc3ccc(C(=O)O)cc3)cc2Br)cc1,8.27%
3,CCOC(=O)C1(CC)NC(c2cccc(F)c2)C2C(=O)N(CC)C(=O)C21 (stereo not drawn),-2.3%
4,COc1ccc(Br)cc1CN1CCC(N2CCCC2)CC1.O=C(O)C(=O)O,8.69%
5,O=C(Cc1ccc2c(c1)OCCO2)Nc1cccc(S(=O)(=O)N2CCOCC2)c1,-1.42%
6,CCc1cn(S(=O)(=O)c2ccccc2OC)nc1N,5.84%
7,COc1ccc(OC)c2sc(NC(=O)C3=COCCO3)nc12,10.4%
8,Cc1cc(=O)nc2c3ccccc3n(C(C)C(=O)Nc3c(F)c(F)c(F)c(F)c3F)n12 (stereo not drawn),10.7%
9,O=C(O)c1cccc(CN2C(=O)c3ccccc3C2=O)c1,6.59%
10,COC(=O)C1=CN(c2ccc(F)cc2)C=C(C(=O)OC)C1c1ccc(O)cc1,-4.74%
11,O=C(C1CC(=O)N(C2CCCCC2)C1)N1CCC2(CC1)OCCO2 (stereo not drawn),14.1%
12,Cc1cc(F)ccc1S(=O)(=O)N1CCCOC1CNC(=O)C(=O)NCc1ccncc1 (stereo not drawn),8.37%
13,O=C(COc1ccc(S(=O)(=O)N2CCOCC2)cc1)NCCc1ccccc1,0.144%
14,O=S(=O)(Cc1ccccc1)Nc1ccc(Br)cn1,11.4%
15,CCOC(=O)c1c(C)n(C)c2ccc(OCC(O)Cn3nc(C)c(Br)c3C)cc12 (stereo not drawn),2.72%
16,Cc1cc(C)n(C(=O)Cn2nc([N+](=O)[O-])cc2C)n1,8.35%
17,CC(=O)c1cccc(NC(=O)c2ccc(N(Cc3ccccc3)S(C)(=O)=O)cc2)c1,-1.9%
18,CN(C)S(=O)(=O)c1cccc(-c2cn3cc(Cl)ccc3n2)c1,3.54%
19,Oc1ccc(C(=S)N2CCCCCC2)cc1,9.52%
20,Cc1cccc(-n2nc(C(=O)c3ccco3)cc(-c3nc4ccccc4[nH]3)c2=N)c1,-46.5%
21,Cc1cc(Nc2ccccc2C(=O)O)n(-c2ccc([N+](=O)[O-])cc2)n1,3.66%
